Laboratory results: the supplement of paper PMC4466236
The full ranking holds about 33,000 sequences; the median of “E-score (dimensionless, -0.5 to 0.5)” is about -0.058, and the highest 2% start at about 0.35. The list shows a part of the results.

The sequences below were run on MvaT (assay: PBM 8-mer E-score (mean of HK and ME arrays) (E-score (dimensionless, -0.5 to 0.5)); higher = stronger relative binding preference; most listed sequences are background and not binding sites).
Method in brief: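 Reported values are rank-based E-scores, taken as the mean of two universal arrays and parsed with a custom script. Each 8-mer score falls between -0.5 and 0.5. The arrays, ME and HK, were double-stranded 60-mers with a constant 25-mer primer region and a variable 35-mer region covering all 8-mers. They were probed, by an earlier protocol, with full-length P. aeruginosa MvaT carrying an N-terminal glutathione S-transferase fusion.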
AGAGTATC was tested, and the “PBM 8-mer E-score” value was 0.0211. With GGCTTACA the “PBM 8-mer E-score” value was -0.23. For TACGTATA, the “PBM 8-mer E-score” value was 0.19. In the case of AAGGGACA, the “PBM 8-mer E-score” value is reported as -0.039. In the case of GGATGGCA, the “PBM 8-mer E-score” value is reported as -0.137. With ATTGTGTG the “PBM 8-mer E-score” value was 0.149. With ACCTCCGA the “PBM 8-mer E-score” value was -0.256. In the case of ACTGTGCG, the “PBM 8-mer E-score” value is reported as -0.0338. ACAACTCT was tested, and the “PBM 8-mer E-score” value was 0.174. ACAACTGA was tested, and the “PBM 8-mer E-score” value was 0.0852. In the case of CCCACACG, the “PBM 8-mer E-score” value is reported as -0.127. In the case of AGGTTTTG, the “PBM 8-mer E-score” value is reported as 0.0664. CACCCCCG was tested, and the “PBM 8-mer E-score” value was -0.246. ACCGGTGA was tested, and the “PBM 8-mer E-score” value was -0.168. With GCCCTCCA the “PBM 8-mer E-score” value was -0.396. With ATCTACCC the “PBM 8-mer E-score” value was -0.128. For CCATTACG, the “PBM 8-mer E-score” value was -0.0598. For GTCTCAGA, the “PBM 8-mer E-score” value was -0.22. With CGATAAAC the “PBM 8-mer E-score” value was 0.187. In the case of GATTGGGC, the “PBM 8-mer E-score” value is reported as -0.24. For GGAAAACA, the “PBM 8-mer E-score” value was 0.161. For CTCTATCA, the “PBM 8-mer E-score” value was -0.00184. CAAACGTA was tested, and the “PBM 8-mer E-score” value was -0.000694. In the case of ACTGACCT, the “PBM 8-mer E-score” value is reported as -0.105. In the case of GTACCGTA, the “PBM 8-mer E-score” value is reported as 0.0554. In the case of GCGTCAGC, the “PBM 8-mer E-score” value is reported as -0.199. GCTTGCCC was tested, and the “PBM 8-mer E-score” value was -0.322. With CGCTATAC the “PBM 8-mer E-score” value was -0.134. AGGCTACC was tested, and the “PBM 8-mer E-score” value was -0.225. In the case of ATGTTTTG, the “PBM 8-mer E-score” value is reported as 0.164. CAGTACGG was tested, and the “PBM 8-mer E-score” value was -0.238. For GAGAATTA, the “PBM 8-mer E-score” value was 0.23. In the case of AAGATATT, the “PBM 8-mer E-score” value is reported as 0.309. In the case of GTATGTTA, the “PBM 8-mer E-score” value is reported as 0.288. With CGACTCGC the “PBM 8-mer E-score” value was -0.234. In the case of GATTAGTA, the “PBM 8-mer E-score” value is reported as 0.205. With ACCTCCGG the “PBM 8-mer E-score” value was -0.108. In the case of AGAATCCA, the “PBM 8-mer E-score” value is reported as -0.149. For GGGGAATA, the “PBM 8-mer E-score” value was 0.0921. TAAAACAA was tested, and the “PBM 8-mer E-score” value was 0.291. With GATTAATA the “PBM 8-mer E-score” value was 0.446. In the case of ACCAGACC, the “PBM 8-mer E-score” value is reported as -0.123. For CCAACGAC, the “PBM 8-mer E-score” value was -0.177. ATAACGAC was tested, and the “PBM 8-mer E-score” value was 0.151. In the case of AAACCCGT, the “PBM 8-mer E-score” value is reported as 0.105. For CCGGCTTA, the “PBM 8-mer E-score” value was -0.0869. ATCTTCAC was tested, and the “PBM 8-mer E-score” value was -0.0359. With ACGCTTCA the “PBM 8-mer E-score” value was -0.183. In the case of GATTCAGA, the “PBM 8-mer E-score” value is reported as -0.0136. In the case of CCCTACAG, the “PBM 8-mer E-score” value is reported as -0.282. With CGATCTGA the “PBM 8-mer E-score” value was -0.0733. For ACAGCGGC, the “PBM 8-mer E-score” value was -0.192. ACATATGT was tested, and the “PBM 8-mer E-score” value was 0.333. In the case of AGCTCCCC, the “PBM 8-mer E-score” value is reported as -0.27. With GACCGCTC the “PBM 8-mer E-score” value was -0.194. In the case of CTCTCCAG, the “PBM 8-mer E-score” value is reported as -0.145. ACGGTGTC was tested, and the “PBM 8-mer E-score” value was -0.226. For AAATTGCA, the “PBM 8-mer E-score” value was 0.184. In the case of CGGAACGA, the “PBM 8-mer E-score” value is reported as -0.118. For GTCTAACA, the “PBM 8-mer E-score” value was 0.109. ATTGAGTC was tested, and the “PBM 8-mer E-score” value was 0.0584. With GTCTACGA the “PBM 8-mer E-score” value was -0.301. In the case of AGTTGTCC, the “PBM 8-mer E-score” value is reported as 0.106. In the case of TGCAGAAA, the “PBM 8-mer E-score” value is reported as 0.0834. AGGACAAA was tested, and the “PBM 8-mer E-score” value was 0.0941. GCGCGATA was tested, and the “PBM 8-mer E-score” value was 0.0739. CACGTTCA was tested, and the “PBM 8-mer E-score” value was -0.145. With CCCGGTTC the “PBM 8-mer E-score” value was -0.168. In the case of AAACCGCA, the “PBM 8-mer E-score” value is reported as -0.0461. For GACCCTGA, the “PBM 8-mer E-score” value was -0.26. For CATCTATC, the “PBM 8-mer E-score” value was 0.0336. For TCGGGACA, the “PBM 8-mer E-score” value was -0.0289. In the case of AGTAGGTG, the “PBM 8-mer E-score” value is reported as -0.0642. CAAATTTG was tested, and the “PBM 8-mer E-score” value was 0.158. In the case of TACACCCA, the “PBM 8-mer E-score” value is reported as 0.13. In the case of GGCGTTTA, the “PBM 8-mer E-score” value is reported as -0.0134. With GTTTACTA the “PBM 8-mer E-score” value was 0.147. CAGTGCAA was tested, and the “PBM 8-mer E-score” value was -0.0401. In the case of GTTTCTAA, the “PBM 8-mer E-score” value is reported as 0.102. In the case of ATAAATTA, the “PBM 8-mer E-score” value is reported as 0.42. For GTTGACGA, the “PBM 8-mer E-score” value was 0.00513. In the case of CACCATAC, the “PBM 8-mer E-score” value is reported as 0.0356. With ACCAGTCA the “PBM 8-mer E-score” value was -0.0642. For CCAATCCC, the “PBM 8-mer E-score” value was -0.189. For CAACTCTC, the “PBM 8-mer E-score” value was -0.0234. AAGTTAAC was tested, and the “PBM 8-mer E-score” value was 0.379.
